This passage reports Ki results from ChEMBL document CHEMBL1132172, “Synthesis of a series of stromelysin-selective thiadiazole urea matrix metalloproteinase inhibitors” (J Med Chem, 1999).

pKi: −log10 of the molar value.

One may read the pKi as the negative decadic logarithm of the Ki, by convention in mol/L. A higher pKi goes with a small Ki.

The target in this assay is Stromelysin-1 (Homo sapiens, UniProt P08254).
Sequence of Stromelysin-1 (P08254 whole entry): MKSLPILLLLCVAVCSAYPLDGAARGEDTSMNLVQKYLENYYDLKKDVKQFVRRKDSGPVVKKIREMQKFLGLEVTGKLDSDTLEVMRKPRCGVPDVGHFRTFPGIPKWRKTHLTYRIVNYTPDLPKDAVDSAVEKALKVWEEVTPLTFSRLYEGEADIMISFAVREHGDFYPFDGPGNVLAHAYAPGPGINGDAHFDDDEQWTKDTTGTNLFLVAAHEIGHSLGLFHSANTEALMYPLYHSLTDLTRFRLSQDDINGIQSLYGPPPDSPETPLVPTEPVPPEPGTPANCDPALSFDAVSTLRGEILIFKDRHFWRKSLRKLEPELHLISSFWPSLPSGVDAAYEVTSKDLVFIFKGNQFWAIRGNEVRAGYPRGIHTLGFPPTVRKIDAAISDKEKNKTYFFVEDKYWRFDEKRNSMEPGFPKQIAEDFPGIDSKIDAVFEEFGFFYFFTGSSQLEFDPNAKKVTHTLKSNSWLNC
On to `COC(=O)[C@H](Cc1ccccc1)NC(=O)Nc1nnc(S)s1`, for which the negative-log Ki (pKi) was 6.54. Under `O=C(Nc1nnc(S)s1)N[C@@H](Cc1c(F)c(F)c(F)c(F)c1F)C(=O)N1CCN(c2ccccn2)CC1` stands 7.85; under `O=C(NCc1ccccc1)Nc1nnc(S)s1`, 4.80. Under `O=C(Nc1nnc(S)s1)N[C@@H](Cc1ccccc1)C(=O)O` stands 5.49.

For `CN(C)C(=O)[C@H](Cc1ccccc1)NC(=O)Nc1nnc(S)s1`, the negative-log Ki (pKi) was 5.64.

In the case of `O=C(NCCc1ccccc1)Nc1nnc(S)s1`, the pKi was 5.15. Under `CC(C)NC(=O)[C@H](Cc1ccccc1)NC(=O)Nc1nnc(S)s1` stands 5.89; under `COc1ccc(NC(=O)Nc2nnc(S)s2)cc1`, 4.16.

`O=C(Nc1nnc(S)s1)N[C@@H](Cc1ccccc1)C(=O)N1CCCC1` showed a pKi of 6.18. The same measure for `O=C(NCCCc1ccccc1)Nc1nnc(S)s1`: 4.80. The same measure for `O=C(Nc1nnc(S)s1)N[C@@H](Cc1ccccc1)C(=O)NCc1ccccc1`: 6.29.
